Data taken from ChEMBL document CHEMBL4888484, “Replenishing the malaria drug discovery pipeline: Screening and hit evaluation of the MMV Hit Generation Library 1 (HGL1) against asexual blood stage Plasmodium falciparum ,using a nano luciferase reporter read-out” (2022).
Values joined by “and” are separate entries in the source; they are usually repeats but may differ in a detail not shown here. Equal values may be shown once. The whole screen tested about 150,000 compounds, of which about 540 (0.36%) showed an effect of 50% or more. The list shows a part of the results.

Test system: Plasmodium falciparum
Test: Primary screen in NF54 nanoGlo assay, in single point, at 2uM, 72h; a lower Z score goes with more inhibition
Assay type: functional, Erythrocyte
Details: timepoint 72 hour

## C=C(C)COc1ccccc1NC(=O)c1[nH]cnc1C
  % Inhibition: -19%
  Z score: 1.7

## CC(NCCc1ccc2[nH]ccc2c1)C1(C)CCCO1 (configuration not stated)
  % Inhibition: 3%
  Z score: -0.27

## O=C(c1ncccc1O)N1C[C@@H]2CC[C@H]1CN(C1CCOCC1)C2
  % Inhibition: -11%
  Z score: 1.02

## Clc1ccc2ncc(CN3CCC[C@@]4(CCOC4)C3)n2c1
  % Inhibition: -9%
  Z score: 1.14

## O=C(c1ccc(C(F)(F)F)cc1)[C@H]1CCCN(CCN2CCOCC2)C1
  % Inhibition: -1%
  Z score: 0.12

## Cc1ccc([C@@H]2COCCN2Cc2ccccc2N(C)C2CCN(C)CC2)o1
  % Inhibition: -6%
  Z score: 0.81

## O=C(Cn1cnc2ccccc21)N[C@H]1COC[C@@H]1N1CCOCC1
  % Inhibition: 1%
  Z score: -0.11

## CCc1noc(C(C)NC(C)Cc2ccc(Cl)cc2)n1 (configuration not stated)
  % Inhibition: -10%
  Z score: 1.48

## C[C@@H]1CN(Cc2c(F)cccc2Cl)CCN1
  % Inhibition: 2%
  Z score: -0.27

## CC1CC1C(=O)N[C@H]1CC[C@@H](CS(=O)(=O)F)C1 (some centres not stated)
  % Inhibition: -11%
  Z score: 1.23

## CCN(C)CC1CCN(C(C)C(=O)c2c(C)[nH]c3ccccc23)C1 (configuration not stated)
  % Inhibition: 7%
  Z score: -0.97

## COc1cccc(-n2nc3c(c2N)N2CCC3CC2)c1
  % Inhibition: -11%
  Z score: 1.32

## COC[C@H](CCO)Nc1ccc(C#N)c(Br)c1F
  % Inhibition: -1%
  Z score: 0.13

## CCCC1CCC(CN[C@@H](C)Cn2cccn2)CC1 (some centres not stated)
  % Inhibition: -13%
  Z score: 1.32

## CCN(c1ccc(C#N)c(Cl)c1)S(=O)(=O)c1ccnn1CC
  % Inhibition: -12%
  Z score: 1.13

## CC[C@H]1CN(C(N)=O)CCN1CC(F)F
  % Inhibition: -14%
  Z score: 1.34

## O=C1CO[C@H]2CN(Cc3ncc[nH]3)C[C@H]2N1Cc1ccccn1
  % Inhibition: 1%
  Z score: -0.12

## CCCC(=O)N1CCC(c2c[nH]cn2)CC1
  % Inhibition: 2%
  Z score: -0.25

## Cc1nc[nH]c1CN1CCCC12CCN(c1ncccn1)CC2
  % Inhibition: 2%
  Z score: -0.17

## Nc1ccnc2c1CN(CC1CC3(CCC3)C1)CC2
  % Inhibition: 8%
  Z score: -0.8

## Cc1nonc1CC(=O)N1CCN(C)C[C@@H]1CC(C)C
  % Inhibition: -11%
  Z score: 1.84

## CC(=O)c1cccc(C(=O)N[C@H]2CCC[C@@H]2N(C)C)c1
  % Inhibition: -12%
  Z score: 1.52

## Cc1noc(C)c1CN1CC2CCN(c3ccccc3)C2C1 (configuration not stated)
  % Inhibition: -14%
  Z score: 1.18

## COCC(C)NC1CCCCC1OC (configuration not stated)
  % Inhibition: -4%
  Z score: 0.75

## O=C(Cc1n[nH]c(=O)c2ccccc12)N1CCC2(CC1)OCCO2
  % Inhibition: -11%
  Z score: 1.85

## Cc1oc(-c2ccccc2)nc1CN1C(=O)CN=C(c2ccccc2)c2ccccc21
  % Inhibition: -3%
  Z score: 0.47

## COc1ccccc1[C@H]1CN(c2ncccc2C#N)[C@@H]2C3CCN(CC3)[C@H]12
  % Inhibition: -3%
  Z score: 0.47

## O=C(N[C@H]1COC[C@@H]1N1CCOCC1)c1ccco1
  % Inhibition: -8%
  Z score: 1.28

## Cc1ccc(-c2nc(CC(=O)N3CCN(C)C[C@@H]3C)cs2)o1
  % Inhibition: -5%
  Z score: 0.62

## CCCCS(CCCC)=C1C(=O)NC(=O)N(c2ccccc2F)C1=O
  % Inhibition: -5%
  Z score: 0.75

## c1c[nH]c(-c2cn(CCc3c[nH]cn3)nn2)n1
  % Inhibition: 2%
  Z score: -0.37

## Cc1ccc(Br)c(S(=O)(=O)NCCc2nc(=O)o[nH]2)c1
  % Inhibition: -42%
  Z score: 4.91

## CC(C)C(=O)N1CCc2cc(-c3ccc(C(=O)N4CCC5(CC4)OCCO5)cc3)ccc21
  % Inhibition: -5%
  Z score: 0.94

## COCCn1nnnc1[C@]1(N2CCCC2)CCN(C(=O)Cc2cccc(F)c2)C1
  % Inhibition: -7%
  Z score: 0.8

## CCc1ocnc1C(=O)N1C[C@@H](c2cccc(O)c2)[C@@H]2[C@H]1C1CCN2CC1
  % Inhibition: 2%
  Z score: -0.32

## CCc1nnc(CN2CC3(CC3)C2)s1
  % Inhibition: -2%
  Z score: 0.18

## Clc1cncc(CN2CC[C@@H]3CC[C@@]32c2cccnc2)c1
  % Inhibition: -6%
  Z score: 0.96

## CC(Cc1ccccn1)NCC(c1ccco1)N1CCCC1 (configuration not stated)
  % Inhibition: -5%
  Z score: 0.65

## O=c1cccc2n1CC1CC2CN(c2nc(N3CCOCC3)nc(N3CCOCC3)n2)C1 (configuration not stated)
  % Inhibition: -10%
  Z score: 1.73

## C[C@H]1COC2(CCN(C(=O)c3cc4c(cc3O)CCCC4)CC2)O1
  % Inhibition: 32%
  Z score: -3.65

## CN1CCN(c2nccc(C(F)(F)F)n2)C[C@]12CCNC(=O)CC2
  % Inhibition: -25%
  Z score: 2.27

## CCn1cc(Cl)cc1C(=O)N(C)Cc1n[nH]c(=O)o1
  % Inhibition: 8%
  Z score: -1.47

## Cc1ccncc1C(=O)N1C[C@@H](c2cc(F)cc(F)c2)[C@@H]2[C@H]1C1CCN2CC1
  % Inhibition: 3%
  Z score: -0.58

## CCCc1cnc(C)nc1N1CCC2(CC1)C(=O)NCCN2C
  % Inhibition: 0%
  Z score: 0.06

## Fc1ccc([C@H]2NCc3cc4c(cc3-n3cccc32)OCO4)cc1
  % Inhibition: -11%
  Z score: 2.19

## Cc1cccn2c(CC(=O)N3C[C@H]4CC[C@@H](C3)N(CC3CC3)C4)cnc12
  % Inhibition: 0%
  Z score: -0.08

## CCC(=O)Nc1ccc(N(C)C2CCN(C)CC2)c(CN(C(=O)Nc2cccc(F)c2)C2CCCCC2)c1
  % Inhibition: -7%
  Z score: 1.35

## CC12CCN(Cc3ncc[nH]3)CC1C2(F)F (configuration not stated)
  % Inhibition: 32%
  Z score: -2.71

## Cc1ncn(CC2CCN(S(=O)(=O)c3ccc4oc(=O)[nH]c4c3)CC2)c(=O)c1C
  % Inhibition: -14%
  Z score: 2.06

## O=C(C1CCOCC1)N1CCCC[C@@H]1CCS(=O)(=O)F
  % Inhibition: 1%
  Z score: -0.14

## N#Cc1c(N)nc2c(c1-c1cc3ccccc3o1)[C@@H]1CC[C@H](C2)N1
  % Inhibition: -8%
  Z score: 0.97

## O=C(c1ccc2c(c1)OCO2)N1CCC2(CC1)OCCO2
  % Inhibition: -14%
  Z score: 1.92

## Cc1cc(-c2ccc(S(=O)(=O)N3CCC(C(=O)N4CCC5(CC4)OCCO5)CC3)o2)[nH]n1
  % Inhibition: -17%
  Z score: 2.78

## CN1CCCN(C(=O)Cc2ccsc2)CC1
  % Inhibition: -6%
  Z score: 0.72

## Cc1ccc(Cc2nc(C3CN4CCCCC4CO3)no2)cn1 (configuration not stated)
  % Inhibition: 1%
  Z score: -0.19

## CC(C)(C)CC(C)(C)NCc1cccnc1
2 µM
  % Inhibition: 1%

## Cc1ccc(-n2c(N3CCCCC3)nc3ccccc3c2=O)cc1
  % Inhibition: -1%
  Z score: 0.22

## Cc1cc(C(=O)NC2CC(C)n3ccnc32)nn1C(C)C (configuration not stated)
  % Inhibition: 62%
  Z score: -7.62

## COc1ccccc1Cn1cc(C(=O)NCCC(C)C)c(=O)c(C(=O)N2CCCCCC2)c1
  % Inhibition: -7%
  Z score: 0.91

## Cc1nc(-c2cc(S(=O)(=O)N3CCC(C(=O)N4CCC5(CC4)OCCO5)CC3)c(C)s2)no1
  % Inhibition: -18%
  Z score: 2.91

## CO[C@H]1C[C@H]2CC[C@@H](C1)N2Cc1ccsc1
  % Inhibition: -8%
  Z score: 1.63

## CCC1CN2CCCC2CN1C(=O)c1cc(C2CC2)on1 (configuration not stated)
  % Inhibition: -12%
  Z score: 1.71

## CC(=O)N(C)CC(=O)N[C@@H](C)Cc1ccccc1Br
  % Inhibition: 1%
  Z score: -0.12

## Cc1ccc(S(=O)(=O)Nc2ccc(S(=O)(=O)N[C@H]3CN4CCC3CC4)cc2)cc1C
  % Inhibition: 3%
  Z score: -0.32

## OCC1C2CCC(C2)N1Cc1ccccc1 (configuration not stated)
  % Inhibition: 0%
  Z score: -0.08

## CCOc1ccccc1NC(=O)N1[C@@H]2CC[C@H]1Cc1nc(CC)[nH]c(=O)c1C2
  % Inhibition: -16%
  Z score: 2.31

## O=C(c1nn(Cc2ccccc2)c2nccc(-c3cccs3)c12)N1CCC(Cc2ccccc2)CC1
  % Inhibition: -13%
  Z score: 1.66

## C[C@@H](Cc1ccsc1)NCCc1cn2ccccc2n1
  % Inhibition: -9%
  Z score: 0.85

## CC1(C)C2CC=C(CN3CCN(c4ccccn4)CC3)C1C2 (configuration not stated)
  % Inhibition: 7%
  Z score: -1.06

## CC(C)Cn1ccc(C(=O)NC2CC(C(=O)O)c3ccccc32)n1 (configuration not stated)
  % Inhibition: 9%
  Z score: -1.19

## Cc1ccc2oc(=O)n(Cc3ccc(OCCC(C)C)cc3)c2c1
  % Inhibition: -20%
  Z score: 3.81

## CCCCS(=O)(=O)NCC#CCN1CCOCC1
  % Inhibition: -6%
  Z score: 0.64

## CCCCOc1ncccc1CNC(=O)C1CN2CCCC2CO1 (configuration not stated)
  % Inhibition: -1%
  Z score: 0.09

## CCN(CC)[C@@H](CN)c1ccc(C)cc1
  % Inhibition: 9%
  Z score: -1.16

## CNc1nc(NC[C@@H]2CCCN3CCCC[C@H]23)ncc1F
  % Inhibition: 6%
  Z score: -1.21

## Cc1ccc2nsnc2c1N1CC1=O
  % Inhibition: -7%
  Z score: 0.84

## c1cncc(CN2C[C@H]3CC[C@@H](C2)N(Cc2ncc[nH]2)C3)c1
  % Inhibition: 8%
  Z score: -1.13

## O[C@@H](CNCCc1c[nH]c2ccccc12)c1ccccc1
  % Inhibition: -19%
  Z score: 1.6

## O=c1ccc(-c2cncnc2)c2n1C[C@H]1C[C@@H]2CN(S(=O)(=O)c2ccccc2)C1
  % Inhibition: -11%
  Z score: 1.78

## C[C@@H](CNC1CCCC1)c1ccccc1
2 µM
  % Inhibition: 11% and 3%

## Cc1cc(=O)c(OCC(=O)N2CCN(Cc3ccc4c(c3)OCO4)CC2)cn1C
  % Inhibition: -10%
  Z score: 1.11

## CC(C)N1CC2(CN(C(=O)c3cccnc3)C[C@@H]3C[C@@H](O)CN32)C1
  % Inhibition: -8%
  Z score: 1.26

## COc1cc(N2C[C@@H](c3ccccc3OC)[C@@H]3[C@H]2C2CCN3CC2)ncn1
  % Inhibition: 4%
  Z score: -0.57

## CCC1CCC(NC[C@H]2CCCO2)CC1 (some centres not stated)
  % Inhibition: -4%
  Z score: 0.67

## CNCCc1cc(OC)c(OC)c2c1ccc1cc(OC)c(OC)cc12
  % Inhibition: 32%
  Z score: -0.73

## Cn1ccc(-c2noc(C(C)(C)c3c[nH]cn3)n2)n1
  % Inhibition: 5%
  Z score: -0.85

## O=C1CCc2cc(C(=O)N3CCC4(CC3)OCCO4)ccc2N1
  % Inhibition: -1%
  Z score: 0.17
